Experimental data published in PubChem BioAssay (Tox21).
The shares of active, inactive and inconclusive entries below differ from those in the screen. For part of these data: Potencies of inconclusive entries are left out as doubtful fits. Calls of active or inactive are those of the source. Unless noted, the call rests on the fitted dose curve; in most records, active means well fitted curve in the direction sought with a large enough effect in the repeat runs; inconclusive means weak or mixed curves; inactive means no such curve, though single readings can be large; an effect the other way counts as inactive or inconclusive.

Tests used:
[1] = biological target: Peroxisome proliferator-activated receptor gamma (Homo sapiens) (UniProt P37231); experiment: qHTS assay to identify small molecule agonists of the peroxisome proliferator-activated receptor gamma (PPARg) signaling pathway (AID 743094; active means well fitted activation curve with a large enough effect in the signal ratio in the repeat runs, not every such curve was filed as active; inconclusive means weak or mixed curves, or effect the other way; inactive means no such curve, though single readings can be large or run the other way; the % refers to the signal ratio); conditions: HEK293H PPARg-UAS-bla, beta-lactamase FRET ratio, 17 h; series mostly up to 57 µM
UniProt P37231, sequence (P37231 whole entry, looked up): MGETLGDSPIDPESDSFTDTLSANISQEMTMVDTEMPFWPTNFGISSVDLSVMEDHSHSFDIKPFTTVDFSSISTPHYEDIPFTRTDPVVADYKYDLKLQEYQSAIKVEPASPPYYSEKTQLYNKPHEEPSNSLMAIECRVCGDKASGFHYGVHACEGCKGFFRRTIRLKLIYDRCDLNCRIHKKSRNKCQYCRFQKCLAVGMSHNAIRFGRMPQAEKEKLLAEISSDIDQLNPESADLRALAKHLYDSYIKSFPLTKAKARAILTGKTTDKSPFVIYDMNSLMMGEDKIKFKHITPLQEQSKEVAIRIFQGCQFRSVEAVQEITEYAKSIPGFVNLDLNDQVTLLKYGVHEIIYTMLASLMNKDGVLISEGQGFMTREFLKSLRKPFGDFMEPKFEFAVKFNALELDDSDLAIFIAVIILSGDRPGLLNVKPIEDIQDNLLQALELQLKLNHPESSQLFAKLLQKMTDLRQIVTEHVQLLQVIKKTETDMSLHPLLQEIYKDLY
Outline: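 Following 5 h plating at 37C, PPARg-bla HEK293H cells receive compound or DMSO for 17 h; fluorescence intensity is recorded after LiveBLAzer B/G loading for 1 h at room temperature.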

[2] = qHTS assay to identify small molecule agonists of the farnesoid-X-receptor (FXR) signaling pathway - cell viability counter screen (AID 743218); conditions: FXR-bla HEK293T viability, CellTiter-Glo luminescence, 16 h; viability change, negative = cytotoxic: at 62.6 µM (top of the series) unless noted; further: nearly all actives have a fitted effect of over 45% in size; further: potency means the concentration at half of the fitted maximal effect
Outline: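 After 16 h at 37 C with test compounds, FXR-bla HEK 293T cells were given LiveBLAzer B/G substrate for 2 h at RT and then CellTiter-Glo; luminescence was taken after 30 min.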

[3] = qHTS assay to identify small molecule antagonists of the vitamin D receptor (VDR) signaling pathway - cell viability counter screen (AID 743225); conditions: VDR-bla HEK293T viability, CellTiter-Glo luminescence, 16 h; viability change, negative = cytotoxic: at 61 µM (top of the series) unless noted; further: nearly all actives have a fitted effect of over 50% in size; further: potency means the concentration at half of the fitted maximal effect
Outline: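 Compounds were pinned onto VDR-bla HEK 293T cells together with 1-alpha,25-dihydroxyvitamin D3 at 3 nM final. After 16 h at 37C and 5% CO2 plus the reporter readout, cell viability was measured by CellTiter-Glo luminescence (30 min, room temperature).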

[4] = qHTS assay to identify small molecule agonists of the estrogen receptor beta (ER-beta) signaling pathway - cell viability counter screen (AID 1259380); conditions: ER-beta-bla HEK293T viability, CellTiter-Glo luminescence, 16 h; series mostly up to 92.4 µM; further: potency means the concentration at half of the fitted maximal effect; nearly all actives have a fitted effect of over 30% in size
Outline: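 Cells used were ER-beta-UAS-bla HEK293T in medium with 2% charcoal-stripped FBS. They were treated for 16 hr at 37C. Viability came from CellTiter-Glo luminescence.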

[5] = biological target: Estrogen receptor (Homo sapiens) (UniProt P03372); experiment: qHTS assay to identify small molecule antagonists of the estrogen receptor alpha (ER-alpha) signaling pathway (AID 743069; active means well fitted curve in the direction sought with a large enough effect in the signal ratio in the repeat runs, not every such curve was filed as active; inconclusive means weak or mixed curves, or effect the other way; inactive means no such curve, though single readings can be large or run the other way; the % refers to the signal ratio); conditions: HEK293 ER-alpha-UAS-bla, beta-lactamase ratio, antagonist mode; series mostly up to 69.4 µM
UniProt P03372, sequence (P03372 whole entry, looked up): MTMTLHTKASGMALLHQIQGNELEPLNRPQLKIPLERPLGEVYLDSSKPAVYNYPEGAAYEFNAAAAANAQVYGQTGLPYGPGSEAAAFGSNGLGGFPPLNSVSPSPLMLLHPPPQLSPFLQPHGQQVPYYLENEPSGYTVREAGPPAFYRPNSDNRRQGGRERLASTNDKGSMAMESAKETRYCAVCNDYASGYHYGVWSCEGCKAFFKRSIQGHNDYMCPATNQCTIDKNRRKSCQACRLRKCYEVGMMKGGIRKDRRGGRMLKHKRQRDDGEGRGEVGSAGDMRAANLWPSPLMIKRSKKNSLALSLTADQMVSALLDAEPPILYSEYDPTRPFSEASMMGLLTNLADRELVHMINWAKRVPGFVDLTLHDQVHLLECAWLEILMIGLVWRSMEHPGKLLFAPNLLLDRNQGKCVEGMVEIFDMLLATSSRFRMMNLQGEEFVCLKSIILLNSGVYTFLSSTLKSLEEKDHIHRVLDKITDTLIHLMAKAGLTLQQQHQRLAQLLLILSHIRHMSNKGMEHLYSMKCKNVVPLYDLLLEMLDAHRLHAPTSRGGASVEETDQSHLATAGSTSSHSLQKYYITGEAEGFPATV
Outline: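 Compound effects are measured against 17beta-estradiol stimulation in HEK293 cells with a UAS-controlled beta-lactamase reporter for ER-alpha. Exposure lasts 18 hr at 37C; LiveBLAzer B/G FRET substrate follows for 2 hr at room temperature.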

[6] = qHTS assay to identify small molecule antagonists of the sonic hedgehog signaling (Shh) pathway (AID 1259369; calls by dose curve; further: nearly all actives have a fitted effect of over 45% in size); conditions: NIH/3T3 Gli1-Luc reporter, Shh antagonist, luminescence 24 h; series mostly up to 92.4 µM
Outline: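 Conditioned medium drives Shh signalling in 3T3Gli1-Luc cells; compounds in DMSO co-applied, 24hr at 37 C, then luciferase luminescence.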

[7] = qHTS assay to identify small molecule agonists of the vitamin D receptor (VDR) signaling pathway - cell viability counter screen (AID 743224); conditions: VDR-bla HEK293T viability, CellTiter-Glo luminescence, 16 h; series mostly up to 62.6 µM; further: potency means the concentration at half of the fitted maximal effect; nearly all actives have a fitted effect of over 50% in size
Outline: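 Here cell health was gauged by luminescent ATP detection (CellTiter-Glo, 30 min RT) in VDR-bla cells that had been incubated with test compounds for 16 h at 37C and 5% CO2.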

[8] = Caspase-3/7 induction in HepG2 cells by small molecules, qHTS cell viability counter screen (AID 1346981); conditions: CellTiter-Fluor fluorescence, 17 h; series mostly up to 92.4 µM; further: potency means the concentration at half of the fitted maximal effect; nearly all actives have a fitted effect of over 30% in size
Outline: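 Multiplexed with the caspase-3/7 assay: HepG2 cells, 16 hr compound treatment, CellTiter-Fluor viability detection by fluorescence.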

[9] = qHTS assay to identify small molecule phospholipidosis (PLD) inducers (AID 1259344; active means well fitted curve in the direction sought with a large enough effect; inconclusive means small, poorly fitted or top-dose-only effect, or another doubt; inactive means no such curve, though single readings can be large; an effect the other way counts as inactive or inconclusive; further: potency means the concentration at half of the fitted maximal effect); conditions: HepG2 phospholipidosis, LipidTOX Red imaging, 24 h; series mostly up to 38.3 µM
Outline: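 Fluorescent phospholipid staining (LipidTOX Red) measured by automated microscopy in fixed HepG2 cells after 24 h treatment; nuclei counterstained with Hoechst 33342; amiodarone as reference inducer.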
Tags describe the fitted curve by direction and shape.

With `CC(=O)SCC(CC(=O)c1ccc(C)cc1)C(=O)O` (configuration not stated) the Potency [1] was “inactive”, the Potency [2] was inconclusive [rising, full curve, poor fit] and the Potency [3] was “inactive”. For the same compound, the Potency [4] was inconclusive [rising, partial curve, poor fit].
In the case of `Cc1nccn1CC1CCc2c(c3ccccc3n2C)C1=O` (configuration not stated), the Potency [5] is reported as “inactive”, the Potency [1] is reported as “inactive” and the Potency [6] is reported as “inactive”.
For `CC(=O)Nc1ccccc1C`, the Potency [7] was inconclusive [cytotoxic, partial curve, poor fit] and the Potency [3] was inconclusive [cytotoxic, single point].
With `Cc1ccc(S(=O)(=O)NC(=O)NN2CC3CCCC3C2)cc1` (configuration not stated) the Potency [2] was “inactive”.
In the case of `CCCCc1ccc(Cl)cc1`, the Potency [8] is reported as inconclusive [rising, single point].
In the case of `c1ccc2c(c1)Sc1ccccc1N2CCN1CCCC1`, the Potency [9] is reported as inconclusive [activator, partial curve, poor fit].
